Measured values reported in article PMC4336329 (PLoS ONE, 2015).
In all, about 310,000 compounds went through this assay and about 2,200 (0.71%) showed an effect of 50% or more. Effects have a minus sign here. Some of the results follow.

Target: human ether-à-go-go-related gene (hERG) potassium channel (human, UniProt Q12809)
Experiment: primary screen, population patch clamp on CHO cells stably expressing hERG

Chain of human ether-à-go-go-related gene (hERG) potassium channel (Q12809 whole entry, looked up): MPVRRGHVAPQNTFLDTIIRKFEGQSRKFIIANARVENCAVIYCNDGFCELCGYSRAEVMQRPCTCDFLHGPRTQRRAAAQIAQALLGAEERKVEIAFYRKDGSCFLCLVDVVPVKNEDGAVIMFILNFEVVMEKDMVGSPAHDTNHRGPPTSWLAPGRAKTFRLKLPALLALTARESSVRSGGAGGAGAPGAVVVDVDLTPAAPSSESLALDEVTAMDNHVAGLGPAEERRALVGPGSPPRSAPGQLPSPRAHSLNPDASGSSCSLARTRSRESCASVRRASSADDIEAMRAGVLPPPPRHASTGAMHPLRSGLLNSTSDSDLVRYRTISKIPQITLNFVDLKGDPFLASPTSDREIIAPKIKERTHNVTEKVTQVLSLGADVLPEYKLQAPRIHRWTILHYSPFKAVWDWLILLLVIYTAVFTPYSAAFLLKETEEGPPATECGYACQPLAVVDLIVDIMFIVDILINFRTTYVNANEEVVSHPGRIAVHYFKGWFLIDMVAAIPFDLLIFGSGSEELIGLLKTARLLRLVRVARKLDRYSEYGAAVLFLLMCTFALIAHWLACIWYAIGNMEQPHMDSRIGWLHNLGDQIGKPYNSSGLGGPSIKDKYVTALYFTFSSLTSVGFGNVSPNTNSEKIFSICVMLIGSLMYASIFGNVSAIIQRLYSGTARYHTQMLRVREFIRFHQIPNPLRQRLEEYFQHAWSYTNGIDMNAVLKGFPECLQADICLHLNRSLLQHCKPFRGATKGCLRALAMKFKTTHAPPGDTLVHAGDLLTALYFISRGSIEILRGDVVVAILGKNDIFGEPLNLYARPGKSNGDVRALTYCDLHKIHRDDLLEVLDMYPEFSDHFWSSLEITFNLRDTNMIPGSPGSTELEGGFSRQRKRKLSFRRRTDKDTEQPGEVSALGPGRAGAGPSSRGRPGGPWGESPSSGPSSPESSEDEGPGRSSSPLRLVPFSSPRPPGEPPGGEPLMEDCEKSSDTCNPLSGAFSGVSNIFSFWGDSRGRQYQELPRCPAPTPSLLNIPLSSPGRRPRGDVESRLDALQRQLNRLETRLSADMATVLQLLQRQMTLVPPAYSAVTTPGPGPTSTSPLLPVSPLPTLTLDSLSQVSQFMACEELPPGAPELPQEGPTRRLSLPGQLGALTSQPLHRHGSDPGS

Compound | hERG current change (%, negative = inhibition) at 1uM
CCn1c(C)nc2cc(C(=O)N/N=C/c3ccc(O)cc3)ccc21 | 13.5%
O=C(CSCc1ccc(Cl)cc1)N/N=C/c1ccccc1 | 7.51%
COC(CNC(=O)[C@H](CSCc1ccccc1)N1Cc2ccccc2C1=O)OC | 3.67%
CCOC(=O)[C@H]1[C@H]2COc3ccc(OC)cc3[C@@H]2N2C(=O)c3ccc(C)cc3NC(=O)[C@@]12C | 11.4%
C=CCOc1ccc(C2=NO[C@@H]3[C@@H]4C[C@@H]([C@H]5C(=O)N(C)C(=O)[C@@H]45)[C@H]23)cc1 | 9.77%
O=C(Oc1ccc(-c2csnn2)cc1)c1cccs1 | 15.7%
CCOC(=O)COc1nc(Nc2ccccc2C)nc(N(C)C)n1 | 4.21%
O=C(NNS(=O)(=O)c1ccccc1[N+](=O)[O-])c1cccc([N+](=O)[O-])c1 | 8.49%
Cc1ccc(CS(=O)(=O)c2nc3c(c(N(C)C)n2)CCCC3)cc1 | 0.691%
COC(=O)C1=CN(c2ccc(F)cc2)C=C(C(=O)OC)C1c1ccc([N+](=O)[O-])cc1 | 5.42%
Cc1cc(=O)[nH]c(SCC(=O)N(CCC#N)c2ccccc2)c1C#N | 10.3%
O=C(CCCOc1ccccc1)Nc1nnc(C2CCCO2)s1 (stereo not shown) | 15.4%
O=C(c1ccc(F)cc1Cl)N(Cc1ccco1)C1CCS(=O)(=O)C1 (stereo not shown) | 7.9%
CCOC(=O)Cn1c(=O)n(Cc2ccccc2)c(=O)c2cccnc21 | 0.721%
Cc1ccc(-c2csc(N3CCN(CCCn4c(-c5ccncc5)nc5ccccc54)CC3)n2)cc1 | 11.6%
O=C(COC(=O)c1c(F)cccc1Cl)NC1CCCC1 | 7.04%
CCOCC(=O)Nc1cc([N+](=O)[O-])ccc1OC | 12.2%
COC(=O)c1sccc1-c1ccc(C(=O)Nc2cccc(Cl)c2)o1 | 19.4%
CC(=O)NC1CCN(CC(=O)Nc2nccs2)CC1 | 14.9%
O=C(NNC1=C(C(=O)C(F)(F)F)CCC1)c1ccccc1O | 17.1%
Cn1nnc(NC(=S)NC(=O)c2cc(Cl)ccc2Cl)n1 | 17.6%
CCOC(=O)C1(Cc2ccccc2)CCCN(C2CCCC2)C1 (stereo not shown) | 7.79%
CCCOc1cccc(C2/C(=C(/O)c3ccc(OC)cc3)C(=O)C(=O)N2CCN(C)C)c1 (stereo not shown) | 7.35%
CCN(c1ccc(C)c(C)c1)S(=O)(=O)c1ccc2c(c1)CCN2C(=O)CCC(=O)O | -2.34%
Cc1ccc(Cl)c(OC(=O)c2nn(C(C)C)c(=O)c3ccccc23)c1 | 3.46%
CCOC(=O)NNC(=S)Nc1c(C)n(C)n(-c2ccccc2)c1=O | 8.77%
COc1ccc(CCC(=O)NNC(=O)c2ccc(OC)cc2)cc1 | 6.53%
COc1ccccc1C(=O)NCc1n[nH]c(=S)n1Cc1ccccc1 | 9.86%

Compound | hERG current change (%, negative = inhibition) at 1uM
CCCCCCn1c(SCCCC)nc2c1c(=O)[nH]c(=O)n2C | 6.01%
CC(C)c1cccc(C(C)C)c1NC(=O)Cn1c(=O)cnc2ccccc21 | 6.47%
Cc1cc2n(n1)C(c1cn(-c3ccccc3)nc1C)Nc1c(C)cccc1-2 (stereo not shown) | -4.96%
Nc1cc(=O)[nH]c(=O)n1CCCc1ccccc1 | 15.6%
CCc1ccccc1N1C(=O)c2cccc3c(N4CCOCC4)c([N+](=O)[O-])cc(c23)C1=O | -4.44%
Cc1ccc(-c2nc3ncccc3o2)cc1NC(=O)Cc1ccc(Cl)cc1 | 18.5%
COc1ccc([N+](=O)[O-])cc1NC(=O)CCNC(=O)Cn1ccc2ccccc2c1=O | 9.67%
CSc1ccc(CN(C)C(=O)c2cc3ccccc3o2)cc1 | 16%
C=CCOC(=O)/C(=C/c1ccco1)NC(=O)/C=C/c1ccccc1 | 8.2%
COC(=O)c1c(C(=O)OC)c(-c2ccc(OC)cc2)n2c1CS(=O)(=O)C2 | 15.1%
Cc1cc(Nc2ccccc2)n(-c2ccc(C(=O)O)cc2)n1 | 5.25%
N#Cc1cc(-c2ccccc2)cn(Cc2c(Cl)cccc2Cl)c1=O | 8.39%
CCC(NC(=O)COc1ccc([N+](=O)[O-])cc1)c1ccccc1 (stereo not shown) | -13.9%
O=[N+]([O-])c1ccc2[nH]c3nc4ccccc4nc3c2c1 | 19.5%
CCOC(=O)CCSc1nc(C)c2ccccc2n1 | 4.93%
Cc1cc(C)cc(OCC(=O)Nc2ccc(S(=O)(=O)Nc3ccccn3)cc2)c1 | 7.72%
COc1ccccc1NS(=O)(=O)c1cccc(NC(=O)Nc2ccc(Cl)cc2)c1 | 5.27%
Cn1c(=O)cc(OCCCC(=O)Nc2ccc3c(c2)OCCO3)c2ccccc21 | 17.2%
CC1(C)Cc2c(cnn2-c2cccc(F)c2)C(NC(=O)c2ccc[n+]([O-])c2)C1 (stereo not shown) | 6.78%
Nn1c(SCC(=O)Nc2ccc(Oc3ccccc3)cc2)nnc1C1CC1 | -1.39%
Cc1cc(C)nc(NC(=O)c2c(-c3c(Cl)cccc3Cl)noc2C)n1 | 12%
COc1ccc2sc(NC(=O)NC(=O)c3c(Cl)cccc3Cl)nc2c1 | 8.81%
CN(C)c1ccc(C(=O)OCC(=O)N2CCCCCC2)cc1 | 15.7%
O=C(COC(=O)/C=C/c1ccccc1)NNC(=O)c1ccc([N+](=O)[O-])cc1 | -2.04%
O=C(NCC(c1ccco1)N1CCCCC1)c1ccc(COc2ccccc2)cc1 (stereo not shown) | 18.7%
CCN(C(=O)CSc1nnc2c3ccccc3n(CC)c2n1)C1CCS(=O)(=O)C1 (stereo not shown) | 6.14%
CCC(C)N1C(=O)c2ccccc2C1C(=O)NC1CCCCCC1 (stereo not shown) | 7.44%
